Experimental findings from PubChem BioAssay AID488969 (Vanderbilt High Throughput Screening Facility, 2010) are described below.

Over roughly 110,000 compounds, “z-score” has its median near -0.1; the highest 2% begin near 2. Some of the results follow. Active and inactive are the calls of the source.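 The calls were made as follows: active = z-score in the third read window above 3 or below -3; inactive = the rest.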

The target in the test is Metabotropic glutamate receptor 8 (Rattus norvegicus) (UniProt P70579). As to the kind of experiment: mGluR8 Gi/Go-coupled signaling modulation – cell-based, rat, thallium flux, HTS, primary screen (AID 488969). To be noted: HEK293 rat mGluR8, GIRK (G protein-gated inwardly rectifying potassium channel) thallium flux, FluoZin2; at 10 µM; stronger effect = higher value; submaximal glutamate (EC20) added with thallium.
UniProt P70579, sequence (P70579 whole entry, looked up): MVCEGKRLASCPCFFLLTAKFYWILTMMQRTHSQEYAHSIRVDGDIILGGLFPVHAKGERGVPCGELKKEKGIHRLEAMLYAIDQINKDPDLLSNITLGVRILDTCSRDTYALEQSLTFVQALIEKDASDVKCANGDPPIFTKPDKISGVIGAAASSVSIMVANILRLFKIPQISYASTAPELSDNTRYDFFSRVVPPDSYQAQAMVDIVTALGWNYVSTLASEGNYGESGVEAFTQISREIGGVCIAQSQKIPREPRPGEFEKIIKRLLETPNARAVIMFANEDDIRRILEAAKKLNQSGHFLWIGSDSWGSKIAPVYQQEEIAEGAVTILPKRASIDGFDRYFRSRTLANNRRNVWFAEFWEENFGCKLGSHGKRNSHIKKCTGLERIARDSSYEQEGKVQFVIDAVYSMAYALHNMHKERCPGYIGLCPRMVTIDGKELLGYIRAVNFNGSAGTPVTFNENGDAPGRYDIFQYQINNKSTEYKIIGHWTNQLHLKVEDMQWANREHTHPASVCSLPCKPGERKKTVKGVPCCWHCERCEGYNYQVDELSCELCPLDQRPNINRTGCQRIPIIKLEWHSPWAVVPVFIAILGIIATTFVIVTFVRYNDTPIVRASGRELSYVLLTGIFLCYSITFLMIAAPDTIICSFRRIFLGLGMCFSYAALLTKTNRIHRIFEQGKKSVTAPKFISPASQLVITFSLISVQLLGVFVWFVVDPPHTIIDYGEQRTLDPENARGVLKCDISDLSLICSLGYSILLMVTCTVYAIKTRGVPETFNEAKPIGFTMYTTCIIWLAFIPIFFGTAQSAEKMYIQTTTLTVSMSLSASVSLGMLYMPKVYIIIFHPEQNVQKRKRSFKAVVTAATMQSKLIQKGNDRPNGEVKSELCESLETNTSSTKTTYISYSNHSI
`Cc1nn(CC(O)COc2ccc3c(c2)CCC3)c(C)c1Br` (stereo unspecified): the z-score turned out to be 0.344. `CCOC(=O)C1=C(C)N=C2SCCC(=O)N2[C@@H]1/C=C/c1ccccc1` registered a z-score of -0.121. The value for `O=C(Nc1cccc([N+](=O)[O-])c1)c1ccncc1` was -0.347. The value for `Cn1c(=O)c2c(nc(CN3CCc4ccccc4C3)n2Cc2ccc(F)cc2)n(C)c1=O` was -0.331. The value for `COc1ccc(NC(=O)CSc2nnc(Cn3cnc([N+](=O)[O-])n3)n2C)cc1` was 0.000496; that for `O=C(N/C=N/OCc1ccc(Cl)cc1Cl)NOCc1c(Cl)cccc1Cl` was 1.49.

Regarding `CCCc1[nH]nc2c1C(c1ccc(OC)c(CSC3=NCCS3)c1)C(C#N)=C(N)O2` (stereo unspecified), the z-score is -1.21. The figure for `COCC(C)n1c(SCc2nc(N)nc(Nc3ccccc3C)n2)nc2ccccc2c1=O` (stereo unspecified) is -1.5.

`CC(C)=C1C2CCC1C(C(=O)NCc1ccccc1)C2C(=O)O` (stereo unspecified) yielded a z-score of -1.01. The figure for `CCOC(=O)c1ccc(NC(=O)CN(Cc2ccc(Cl)cc2)S(C)(=O)=O)cc1` is 1.64; for `CCN(CC(=O)NCc1cccs1)C(=O)c1cc(S(=O)(=O)N2CCOCC2)ccc1C` it is 0.964.

As for `O=S(=O)(Nc1nccs1)c1cnc(Cl)c(Br)c1`, the z-score came to 0.908. The value for `O=C(N/N=C/c1ccc(N2CCOCC2)c([N+](=O)[O-])c1)c1ccc(F)cc1` was -0.226; that for `CN1CCN(C(=O)c2ccccc2NC(=O)c2cccs2)CC1` was -0.803; that for `Cn1c(CCc2ccccc2)nnc1SCC(=O)N1CCCC1` was -0.39. The figure for `Oc1ccc2ccccc2c1C=NCc1cn2ccsc2n1` is 1.23; for `O=C(CCc1ccccc1)Nc1ncn[nH]1` it is -0.167; for `CCN1C(=O)c2ccc(C(=O)NCc3ccc4c(c3)OCO4)cc2C1=O` it is -1.27. Turning to `CCOC(=O)c1cc2c(N)c(C(=O)c3cc(C#N)c(SC)nc3C)sc2nc1C`, the z-score was determined as 0.539.

Turning to `O=C(OC1CCOC1=O)c1cc(-c2ccc(Br)cc2)nc2ccccc12` (stereo unspecified), the z-score is -0.248. The value for `Clc1ccc(CSc2nccn2Cc2ccccc2)cc1` was -0.314; that for `COc1ccccc1N1CCN(Cc2cc(Br)c(O)c3ncccc23)CC1` was active: 3.32; that for `C=CCn1c(Br)nc2c1c(=O)[nH]c(=O)n2C` was 0.231. The figure for `COC(=O)c1ccc(N=NNc2ccc(C(=O)OC)cc2)cc1` is -0.0451. The value for `CC(=O)c1cccc(NC(=O)N2CCCC2C(=O)Nc2cccc(C)c2)c1` (stereo unspecified) was 0.691. Turning to `COC(=O)c1ccc2c(=O)n(CCO)c(=S)[nH]c2c1`, the z-score amounted to 0.000255. The figure for `COc1ccc(C(=O)N2C(=S)NC(=O)/C2=C\c2ccc(C)cc2)cc1` is 2.75; for `COc1ccc(-c2nn(-c3ccccc3)cc2/C=N/NC(=O)c2ccc3c(c2)OCO3)cc1` it is 0.539. The figure for `COC(=O)c1ccc(C2/C(=C(/O)c3ccc(OC)cc3)C(=O)C(=O)N2c2cc(C)on2)cc1` (stereo unspecified) is -0.603. Regarding `CN(C)S(=O)(=O)c1cccc(NC(=S)NN=C(Cc2ccccc2)Cc2ccccc2)c1`, the z-score was found to be 0.673. The value for `Cc1cc(C)c(NC(=O)c2cc3c(nc4sccn43)s2)c(C)c1` was 0.0814.

For the compound `Cn1c(=O)oc2cc(S(=O)(=O)N3CCCC(C(=O)Nc4nccs4)C3)ccc21` (stereo unspecified), the z-score was found to be 0.436. The figure for `CNC(=O)c1cc(Cl)c(OC)c(OC)c1` is -0.118. The figure for `CCOc1ccc(CN2CCN(S(=O)(=O)c3ccc(NC(C)=O)cc3)CC2)cc1OC` is 0.0915; for `C=CCOc1ccc(C2C(C(=O)c3ccco3)=C(O)C(=O)N2CCCN(CC)CC)cc1` (stereo unspecified) it is -0.268. The value for `COC(=O)c1cccc(N(C(=O)c2ccco2)C(C(=O)NC2CCCC2)c2ccco2)c1` (stereo unspecified) was -0.117. The compound `COc1ccc(OC)c(N(CC(=O)Nc2cccnc2)S(C)(=O)=O)c1` registered a z-score of -0.174. The value for `COc1ccc(OCC(=O)Nc2cccc(C(=O)Nc3ccccc3C(=O)O)c2)cc1` was -0.957; that for `COCCNC(=O)c1onc(CSc2ccc(C(C)C)cc2)c1C(=O)O` was -0.139; that for `CCc1ccc(-n2c(=O)c3c(C)c(C(=O)N(C)C)sc3n(CC(=O)NCc3ccco3)c2=O)cc1` was 0.869. The figure for `COc1ccc(CNC(=O)COC(=O)C2=COCCO2)cc1` is 0.00886; for `CC(C)CC(=O)c1c[nH]c(C(=O)NCC2CCCO2)c1` (stereo unspecified) it is 0.015. `O=C1CC(c2cccc(F)c2)SC(N(c2ccccc2)c2ccccc2)=N1` (stereo unspecified): the z-score was -0.127. The compound `Cc1cc(/C=C(\C#N)C(=O)OCC(=O)Nc2ccc(OC(F)F)cc2)c(C)n1CC(C)C` yielded a z-score of -0.0858. The figure for `COc1ccc(C)cc1NC(=O)c1nnn(Cc2cc(C)ccc2C)c1N` is 0.562. In turn, `Cc1ccccc1-c1nc(CN2CCC(C(=O)NCc3ccco3)CC2)c(C)o1` gave a z-score of 0.0789. The figure for `CN(c1ccc(C(=O)N2CCOCC2)cc1)S(C)(=O)=O` is -0.193; for `CCc1ccc(S(=O)(=O)c2n[nH]n3c2nc(=O)c2ccccc23)cc1` it is 0.475; for `Cc1c2cccn2cc[n+]1C` it is -0.16. The figure for `COc1ccc(C2CC(c3cccs3)=NN2C(=O)COC(=O)c2cc3ccccc3cc2O)cc1OC` (stereo unspecified) is 0.101.

With `CCOc1nc(-c2ccncc2)nc2ccccc12`, the z-score was -0.619. `Cc1cc(C)cc(NS(=O)(=O)c2ccc3[nH]cc(C(=O)NCc4ccco4)c(=O)c3c2)c1` gave a z-score of 0.218. `Cc1nn(-c2ccccc2)c(C)c1NC(=O)COc1ccc2ccccc2c1` gave a z-score of -0.197.

As for `CN(c1ccccc1)S(=O)(=O)c1cc(C(=O)N2CCN(c3ccccn3)CC2)ccc1Cl`, the z-score was -0.278. The figure for `NC(=O)C1CCN(C(=O)CSc2ccccn2)CC1` is 0.269; for `Cc1ccc(C2N(c3ccccc3)C(=S)N3CCCN23)cc1` (stereo unspecified) it is -0.625; for `Cc1nc2ccc(NC(=O)c3cccc(S(=O)(=O)N4CC(C)OC(C)C4)c3)cc2s1` (stereo unspecified) it is 0.116. The figure for `CCCOC(=O)C1[C@H]2C(=O)N(CCCOC)C[C@]23C=C[C@H]1O3` (stereo partly specified) is 0.152; for `O=C(O)CCC(=O)Nc1ccc(N2CCCCC2)c(C(=O)O)c1` it is 0.0405; for `O=C(O)CN(c1ccccn1)S(=O)(=O)c1ccc(Cl)cc1` it is -0.778. The figure for `O=c1ccc2ccc(Oc3ccc([N+](=O)[O-])cc3[N+](=O)[O-])cc2o1` is 0.372; for `O=[N+]([O-])c1nn(-c2ccc3c(c2)OCCO3)n(O)c1=NCCCO` it is 0.188. With `CC(=O)c1ccc(-n2c(SCC(=O)c3c[nH]c4ccccc34)nc3ccccc3c2=O)cc1`, the z-score amounted to 0.548. The value for `CCC(C)n1c(SCc2ccc([N+](=O)[O-])cc2)nc2ccsc2c1=O` (stereo unspecified) was 0.36; that for `COc1ccc(N(CC(=O)NN=C2CCCCCCC2)S(=O)(=O)c2ccccc2)cc1` was -0.421. The value for `Cc1ccc(-c2cc(C(=O)Nc3cc(C)on3)c3ccccc3n2)c(C)c1` was -0.549. The figure for `Nc1ccc2oc3ccccc3c2c1` is -0.124. `Cc1cc(NC(=O)c2cc(-c3ccccc3)on2)no1` returned a z-score of 0.0825.

On to `CCOC(=O)c1c(C)nc2c(c1-c1ccccc1)C(=O)CCC2`, for which the z-score was -0.0671. The value for `O=C(NC1CC1)c1cc(=O)c2ccccc2o1` was -0.109; that for `CCCCc1c(O)nc(SCC(=O)N2CCOCC2)n(-c2ccccc2C)c1=O` was -0.925; that for `CC1=C(C)[N+](=O)C2CCCCC2N1[O-]` (stereo unspecified) was -0.196.

Consider `OC(CCN1CCOCC1)(c1ccc(Cl)cc1)C1CCCCC1` (stereo unspecified), for which the z-score is -0.807.

The compound `O=C(COc1ccc([N+](=O)[O-])cc1Cl)NCCc1ccccc1` gave a z-score of -0.38.

As to `CCOC(=O)c1sc2ncn(/N=C/N(C)C)c(=O)c2c1C`, the z-score was found to be 0.0203. The value for `Cc1cccc(NC(=O)C2CCCN(S(=O)(=O)c3cccc4cccnc34)C2)c1` (stereo unspecified) was -0.0863. In turn, `COC(=O)c1ccc2c(=O)[nH]c(CSc3nnc(C(F)(F)F)n3C)nc2c1` had a z-score of -0.0782. The figure for `CCOC(=O)c1c(C)[nH]c(C(=O)COC(=O)c2cnc(C)cn2)c1C` is -0.736; for `O=C(c1cccc(Cl)c1)N1CCCC(C(=O)N2CCCCCC2)C1` (stereo unspecified) it is 0.315; for `COc1cccc(OCCc2c(C)n[nH]c2C)c1` it is 1.21. The figure for `Cc1ccc(/C=C/C(=O)NC2=NCCS2)cc1` is -0.0354; for `Cc1cccc2sc(NC(=O)c3ccc(NS(=O)(=O)c4cccs4)cc3)nc12` it is -0.134; for `CC(c1ccccc1)n1c(NCCCn2ccnc2)nc2c1c(=O)[nH]c(=O)n2C` (stereo unspecified) it is 0.068.

On to `COc1ccc(CCC(C)NCC2CCCCC2)cc1` (stereo unspecified), for which the z-score is 0.819. The figure for `CCn1c(SCC(=O)NC(=O)NCc2ccco2)nc2sc(C)c(C)c2c1=O` is active: 3.05; for `O=C(Cn1c(=O)n(CCC(=O)N2CCc3ccccc3C2)c(=O)c2ccccc21)NCC1CCCO1` (stereo unspecified) it is -0.331.

With `CCOc1cc(NC(=O)c2ccco2)c(OCC)cc1NC(=O)c1cc(OC)c(OC)c(OC)c1`, the z-score is -0.394. The figure for `Cc1ccc(-c2cc(C(=O)NCCCn3ccnc3)c3cc(Br)ccc3n2)o1` is 0.0695; for `COc1ccc(-c2nc3ccccc3c(C(=O)Nc3ccc(S(=O)(=O)Nc4cc(C)on4)cc3)c2C)cc1` it is -0.279; for `CCCc1nnc(NC(=O)CCC(=O)N2CCN(CCOc3ccc(C)cc3)CC2)s1` it is -0.508. The figure for `O=C(Nc1cccc(S(=O)(=O)N2CCCCCC2)c1)c1ccc2c(c1)OCO2` is -0.732. The value for `CCN(CC)S(=O)(=O)c1ccc(Br)c(OC)c1` was -0.193; that for `CCC(=O)Nc1ccccc1C(=O)OC(c1ccccc1)c1ccccc1` was -0.206. On to `Cc1cccc(C(=O)NC(NCc2ccco2)C(Cl)(Cl)Cl)c1` (stereo unspecified), for which the z-score is -0.117.

Regarding `Cc1ccc(CCC(=O)Nc2ccc(S(N)(=O)=O)cc2)o1`, the z-score was found to be 0.405. As to `O=C(COC(=O)CC1c2ccccc2CCN1S(=O)(=O)c1ccccc1)Nc1ccccc1` (stereo unspecified), the z-score was -0.318. The figure for `CC1(C)Cc2c(c(=S)nc(-c3ccccc3)n2CCN2CCOCC2)CO1` is -0.443; for `CSc1nc(Oc2ccc(F)cc2F)cc(C(F)(F)F)n1` it is -0.141; for `C=CCc1cc(OC)ccc1OCC(O)CN1CCN(c2ccc(OC)cc2)CC1` (stereo unspecified) it is -0.217. The value for `CCOC(=O)/C(C#N)=C(/C)c1ccc(OC)cc1` was 0.395.

In the case of `CC(=O)c1cccc(NC(=O)c2ccc3c(Cl)c4c(nc3c2)CCCC4)c1`, the z-score turned out to be 0.12.

Compound `COc1ccc(CCNC(=O)CSc2nc(O)c(C(C)C)c(=O)[nH]2)cc1OC` showed a z-score of -0.13. Consider `CC(C)(C)Nc1c(N)c(=O)oc2ccccc12`, for which the z-score was -0.0357. The value for `Cc1ccc(-n2c(SCc3cc(=O)n4ccsc4n3)nnc2-c2cccnc2)c(C)c1` was -0.0941.

On to `C/C=C/c1ccc(OCCCn2cncn2)c(OC)c1`, for which the z-score turned out to be 0.205. As to `COc1cc(OC)cc(C(=O)N(Cc2cc3cc(C)ccc3[nH]c2=O)C(C)C)c1`, the z-score was -0.195.
